Test results: PubChem BioAssay AID1346428 (National Center for Advancing Translational Sciences (NCATS), 2018)
Values joined by “and” are separate entries in the source; they are usually repeats but may differ in a detail not shown here. Identical values can stand only once. Among all 48,000 compounds or so, about 1,200 (2.5%) were called active. Not shown: some 2% with an inconclusive outcome.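 How the source made its calls: active means activation of at least 60% and not above a set upper limit (about 1 call in 100 departs from these limits); inconclusive means activation of 40% to 60%, or above that upper limit; inactive means activation under 40%.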 The list shows a part of the results.

These compounds were tested against Probable G-protein coupled receptor 32 (Homo sapiens) (UniProt O75388) (assay: qHTS for Agonists of Human Resolvin D1 Receptor DRV1). Details: CHO-K1 GPR32 beta-arrestin PathHunter luminescence, 90 min; at 76.9 µM; active compounds read high; zero percent set by DMSO-only wells.
How it was run: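 Using DMSO wells as EC0, agonist-induced signal was taken as chemiluminescence from beta-Gal reconstituted upon beta-arrestin recruitment to GPR32 in CHO-K1 cells after 90 min compound treatment.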
Further: 0% is about no effect.

Chain of UniProt O75388 (O75388 whole entry, looked up): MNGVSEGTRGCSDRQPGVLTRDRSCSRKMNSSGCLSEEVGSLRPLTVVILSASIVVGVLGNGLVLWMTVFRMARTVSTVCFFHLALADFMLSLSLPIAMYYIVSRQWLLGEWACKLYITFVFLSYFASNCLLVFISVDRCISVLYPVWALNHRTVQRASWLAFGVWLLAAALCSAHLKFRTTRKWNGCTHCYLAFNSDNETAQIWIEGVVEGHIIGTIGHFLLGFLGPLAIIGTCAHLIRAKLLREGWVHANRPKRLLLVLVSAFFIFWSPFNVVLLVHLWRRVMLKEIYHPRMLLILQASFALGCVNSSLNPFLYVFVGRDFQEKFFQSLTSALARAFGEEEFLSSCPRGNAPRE

SMILES	activation
CCN(c1ccc(OC)cc1)S(=O)(=O)c1ccc2[nH]c3c(c2c1)CCCCC3	inactive: 11.4%
COc1ccc(N2CC(NC(=O)C3CCCCC3)CC2=O)cc1 (stereo not drawn)	inactive: -1.81%
CCn1c(SCC(=O)Nc2cc(C)ccc2F)nnc1-c1ccccc1O	active: 82.1%
Clc1ccc(C(Cn2ccnc2)OCc2c(Cl)cccc2Cl)c(Cl)c1 (stereo not drawn)	inactive: -107%
COc1ccc(CC(=O)N2CC(=O)Nc3ccc(F)cc3C2c2ccccc2)cc1 (stereo not drawn)	inactive: -10.2%
CCOC(=O)CNC(=O)N1CCN(S(=O)(=O)c2ccc3c(ccn3C)c2)CC1	inactive: -5.52%
CCCOc1ccc(C2c3c(oc4ccccc4c3=O)C(=O)N2c2nnc(C(C)C)s2)cc1 (stereo not drawn)	inactive: 3.12%
CC(=O)c1ccc(NC(=O)C2CCN(S(=O)(=O)c3ccc4[nH]c5c(c4c3)CCCCC5)CC2)cc1	inactive: -5.23%
Cc1ccccc1CNC(=O)Cn1c(=O)c2cccn2c2cccnc21	inactive: -16.1%
COc1ccccc1CNC(=O)c1ccc(N2CCCC2)c(NC(=O)NCc2ccc(C)cc2)c1	inactive: -29.9%
COc1ccc(C2=NC(c3ccccc3)=Nc3ccc(C)cc3N2)cc1	inactive: -10.9%
CCc1ccc(CNC(=O)C2CCN(c3nn4cc(-c5ccc(OC)cc5)nc4s3)CC2)cc1	inactive: 0.276%
COC(=O)c1ccccc1NC(=O)c1ccc(CN2CC(=O)N3CCCCC3C2=O)cc1 (stereo not drawn)	inactive: -13.7%
COc1ccc(NC(=O)CSc2nnc(-c3ccncc3)n2-c2ccccc2)cc1	inactive: 35.1%
CN1CCN(C(=O)c2ccc3c(c2)N(Cc2ccc(F)cc2)C(=O)c2ccccc2S3(=O)=O)CC1	inactive: -5.38%
COc1ccccc1N1CCN(CC(O)COc2ccc(Cl)c(C)c2)CC1 (stereo not drawn)	active: 118%
O=C(CSc1n[nH]c(-c2ccc(F)cc2)n1)N1CCN(c2ccc(F)cc2)CC1	inactive: -4%
CCOC(=O)c1cc(S(=O)(=O)Nc2ccccc2)[nH]n1	inactive: 2.31%
CCC(C)NC(=O)c1c2c(nc3ccccc13)C(=O)N(C1CCCCC1)C2 (stereo not drawn)	inactive: 8.41%
COc1ccc(C(=O)Nc2ccc3oc(-c4cccc5c(Br)cccc45)nc3c2)cc1	inactive: 46.8%
CCN1CCc2c(sc(NC(=O)c3ccc(S(=O)(=O)N4CCCC(C)C4)cc3)c2C(=O)OC)C1 (stereo not drawn)	inactive: 13.8%
O=C(CNC(=O)c1ccc(F)cc1)OCc1cc(=O)n2ccsc2n1	inactive: 0%
O=S1(=O)c2ccccc2N(Cc2ccccc2F)c2ccccc21	inactive: -13.3%
CCCCN(C)C(=O)c1ccc2c(=O)n3nc(Nc4cc(C)ccc4C)sc3nc2c1	inactive: 0.396%
Cc1ccccc1Cn1c(CN2CCC(C(=O)NCc3ccc(Cl)cc3)CC2)cc2ccccc21	inactive: -27.1%
Cc1c(Cl)cccc1NC(=O)C(=O)NCCc1csc(-c2ccc(C(F)(F)F)cc2)n1	inactive: -0.872%
O=C(NCc1ccc2c(c1)OCO2)c1ccc2c(c1)N(Cc1c(F)cccc1Cl)C(=O)c1ccccc1S2	inactive: -14.8%

SMILES	activation
Cc1cc(C)c(OCC(=O)N(Cc2ccc(N(C)C)cc2)Cc2ccco2)c(C)c1	inactive: -17.6%
Cc1cc(C)cc(NC(=O)COc2cccc3c(=O)n(C)ccc23)c1	active: 85.6%
COc1ccc(CCNC(=O)c2ccc(-n3c(C)cc4c3CCC(C)C4)cc2)cc1OC (stereo not drawn)	inactive: -7.04%
CCOc1ccc(NS(=O)(=O)c2ccc3c(c2)NC(=O)CCS3)cc1	active: 74.7%
COC(=O)c1ccccc1NC(=O)Cn1c(=O)n(CCC(=O)NCc2ccc3c(c2)OCO3)c(=O)c2ccccc21	inactive: -6.05%
COc1ccc(C(=O)c2cn(CC(=O)Nc3cc(OC)cc(OC)c3)c3ccc(OC)cc3c2=O)cc1	inactive: 6.04%
Cc1ccc(Cn2nc3n(c2=O)-c2cc(Cl)ccc2OC3)cc1	inactive: 19%
COc1ccc(-n2c(-c3cccc(F)c3)nc3c(cnn3-c3ccc(C)cc3)c2=O)cc1	inactive: 14.3%
Cc1ccc(-c2csc(-c3c(N)c(C(=O)c4ccc5c(c4)OCO5)n4ccccc34)n2)cc1	inactive: 13.5%
Cc1ccc(-c2cn3nc(N4CCCC(C(=O)NCc5ccccc5F)C4)sc3n2)cc1 (stereo not drawn)	inactive: -27.8%
CC1=C(C(=O)OC2CCCC2)C(c2c(F)cccc2Cl)CC(=O)N1 (stereo not drawn)	inactive: 28.7%
CCOC(=O)c1c(S(=O)(=O)N2CCC(C(=O)NCc3cccc(OC)c3)CC2)c(C)n(C)c1C	inactive: 1.53%
COc1cccc(N2C(=O)C(CC(=O)Nc3cccc(F)c3)N(C3CCCC3)C2=O)c1 (stereo not drawn)	inactive: -17.1%
Cn1ccnc1SCC(=O)Nc1cccc(Br)c1	inactive: -0.176%
Cc1cccc(N(C)C(=O)Cn2c(=O)oc3cc(S(=O)(=O)N4CCCCC4)ccc32)c1	inactive: -8.3%
COc1ccc(-c2nc3ccccc3o2)cc1NC(=O)Cc1ccc(Cl)cc1	inactive: -0.772%
Cc1ccc2oc(-c3ccc(C)c(NC(=O)/C=C/c4ccco4)c3)nc2c1	inactive: -8.55%
Cc1ccc2c(CC(=O)N(Cc3ccc(N(C)C)cc3)Cc3ccco3)coc2c1C	inactive: -21.3%
O=C(NCc1ccccc1Cl)c1nnc(Cc2cccc(F)c2)o1	inactive: -4.51%
O=C1CSC2(C(=O)N(Cc3cccc(C(F)(F)F)c3)c3ccccc32)N1c1ccc(F)c(F)c1 (stereo not drawn)	inactive: 4.47%
Cc1ccc(CNC(=O)Cn2ccn(-c3cccc(Cl)c3)c(=O)c2=O)cc1	inactive: -1.47%
N#Cc1ccccc1CSc1nnc(-c2ccc(Br)cc2)o1	inactive: 0.536%
COc1cccc(-c2cc(C(F)(F)F)n3ncc(C(=O)OC(C)C)c3n2)c1	inactive: -6.98%
CCc1ccc(OCC(=O)N(Cc2ccc(C(C)C)cc2)C2CCS(=O)(=O)C2)cc1 (stereo not drawn)	inactive: -39.3%
Cc1ccc(-c2noc(CNC(=O)c3ccc(C)c(Cl)c3)n2)cc1	inactive: 5.09%
NC(=O)N1c2ccccc2C=Cc2ccccc21	inactive: 6.53% and inactive: 1.58%
